# Assay results published in publication PMC4336329 (PLoS ONE, 2015).
# Screen size: about 310,000 compounds; about 2,200 (0.71%) showed an effect of 50% or more. The effect is printed as a negative number. Some of the results follow.
# Molecular target: human ether-à-go-go-related gene (hERG) potassium channel (human, UniProt Q12809)
# Test: primary screen, population patch clamp on CHO cells stably expressing hERG
# Sequence of human ether-à-go-go-related gene (hERG) potassium channel (Q12809 whole entry, looked up): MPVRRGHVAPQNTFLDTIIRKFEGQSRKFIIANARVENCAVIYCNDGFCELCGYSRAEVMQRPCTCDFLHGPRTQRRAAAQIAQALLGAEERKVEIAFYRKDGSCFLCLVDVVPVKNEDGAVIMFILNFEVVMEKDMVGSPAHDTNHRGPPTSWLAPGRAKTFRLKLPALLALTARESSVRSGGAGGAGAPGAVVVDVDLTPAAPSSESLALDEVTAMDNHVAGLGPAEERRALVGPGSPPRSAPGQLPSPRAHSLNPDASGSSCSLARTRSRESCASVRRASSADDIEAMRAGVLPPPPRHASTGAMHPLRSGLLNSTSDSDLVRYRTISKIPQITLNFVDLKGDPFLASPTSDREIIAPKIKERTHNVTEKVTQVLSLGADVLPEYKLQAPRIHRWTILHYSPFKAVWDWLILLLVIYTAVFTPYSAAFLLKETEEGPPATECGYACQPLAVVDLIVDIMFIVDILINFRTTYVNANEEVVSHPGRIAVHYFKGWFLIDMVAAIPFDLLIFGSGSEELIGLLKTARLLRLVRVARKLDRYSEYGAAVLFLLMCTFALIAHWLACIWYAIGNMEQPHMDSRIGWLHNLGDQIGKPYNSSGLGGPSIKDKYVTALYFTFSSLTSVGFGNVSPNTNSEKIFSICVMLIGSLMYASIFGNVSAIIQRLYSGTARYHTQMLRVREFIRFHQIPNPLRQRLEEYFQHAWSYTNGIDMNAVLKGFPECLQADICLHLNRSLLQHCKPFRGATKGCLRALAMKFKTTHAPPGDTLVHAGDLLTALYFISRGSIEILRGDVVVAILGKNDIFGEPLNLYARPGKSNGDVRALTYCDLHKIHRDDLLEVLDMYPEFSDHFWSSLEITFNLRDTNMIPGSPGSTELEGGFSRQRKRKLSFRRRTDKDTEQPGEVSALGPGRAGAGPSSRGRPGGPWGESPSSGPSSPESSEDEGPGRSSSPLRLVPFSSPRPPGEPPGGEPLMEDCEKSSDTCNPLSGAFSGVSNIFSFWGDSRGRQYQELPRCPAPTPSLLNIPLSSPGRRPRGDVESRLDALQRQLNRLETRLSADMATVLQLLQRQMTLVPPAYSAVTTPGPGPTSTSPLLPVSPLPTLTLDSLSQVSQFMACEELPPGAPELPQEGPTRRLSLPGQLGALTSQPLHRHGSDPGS
row,Compound,"hERG current change (%, negative = inhibition) at 1uM"
1,O=C(COC(=O)c1cc(=O)c2ccccc2o1)Nc1ccc2ccccc2c1,9.79%
2,CC(C)(C)S(=O)(=O)c1cnc(N2CCOCC2)nc1N,11%
3,c1ccc2cc3[nH]c(CN4CCCCC4)nc3cc2c1,-14.2%
4,CN(NC1OC(=O)c2ccccc21)c1ncc(Cl)cc1C(F)(F)F (stereo not drawn),9.3%
5,CCOC(=O)c1ccccc1NC(=S)N1CCC(N2CCCCC2)CC1,1.08%
6,O=C1CSC2=NCN(c3ccccc3)CN12,18.9%
7,c1ccc(CCNc2nc(-c3ccncc3)cs2)cc1,9.61%
8,COCc1cc(=O)n2[nH]c(C(F)(F)F)nc2n1,14.1%
9,COc1cccc(S(=O)(=O)N2CCN(C(=O)c3ccco3)CC2)c1,7.64%
10,Fc1cccc(-c2cc3nc4c(c(N5CCOCC5)n3n2)CCCC4)c1,5.66%
11,COc1cccc(NC(=O)CNC(=O)c2ccc([N+](=O)[O-])cc2)c1,7.93%
12,CC(NC(=O)C(=O)NN=C1CCCC1)c1ccccc1 (stereo not drawn),5.08%
13,CCc1ccccc1NC(=O)c1ccc2snnc2c1,1.38%
14,CN1C(=O)C(CC(=O)NC2CCCCC2)N(C)C1=O (stereo not drawn),12.8%
15,COc1cc(/C=C/C(=O)N2CC(C)OC(C)C2)cc(OC)c1OC (stereo not drawn),15.4%
16,O=C1OC(N2C(=O)CC[C@H]2C(=O)Nc2ccc(F)c(F)c2)c2ccccc21 (stereo partly drawn),8.61%
17,O=C(Nc1cccc(S(=O)(=O)NC2=NCCC2)c1)c1cnc(Cl)c(Cl)c1,5.12%
18,COC(=O)c1cc(CN2C(=O)c3ccccc3C2=O)c(O)c([N+](=O)[O-])c1,9.14%
19,Cc1ccc(S(=O)(=O)N2CCOCC2)s1,14.8%
20,CN1CCN(C(=O)/C=C/c2ccccc2)CC1,13.5%
21,COc1cc(C=C(c2nc3ccccc3s2)c2nc3ccccc3s2)ccc1O,12.1%
22,CC(=O)c1cnc2c(-c3ccccc3)c(C(F)(F)F)nn2c1C,11.3%

row,Compound,"hERG current change (%, negative = inhibition) at 1uM"
1,O=S(=O)(c1cccs1)N1CCN(c2ccccc2Cl)CC1,15.1%
2,COc1ccc(NC(=O)CSc2nc3c(c(-c4cccs4)c2C#N)CN(C)CC3)cc1OC,8.17%
3,O=C(COC(=O)Cc1ccc(S(=O)(=O)N2CCOCC2)s1)NCc1ccccc1,-0.496%
4,COc1ccccc1NC(=O)c1ccc(NC2=NC3CS(=O)(=O)CC3S2)cc1 (stereo not drawn),16.1%
5,CCN(CC)S(=O)(=O)c1cc(C(=O)Nc2nncs2)c(Cl)cc1Cl,-13.4%
6,Cc1cc(=O)oc2c3c(cc(OCC(=O)N4CCC[C@H]4C(=O)O)c12)OC(C)(C)CC3,4.57%
7,COc1ccc(-c2nnn(CC(=O)N(CCCN3CCOCC3)C(C(=O)NC3CCCC3)c3ccco3)n2)cc1 (stereo not drawn),-7.27%
8,COc1ccc(N2CCN(C(=O)c3ccc(CS(=O)(=O)c4ccccc4C)o3)CC2)cc1,0.393%
9,COc1ccc(Nc2nc(N)nc(CN3CCC(Cc4ccccc4)CC3)n2)cc1,-81%
10,CCOc1ccc(S(=O)(=O)NCc2ccncc2)cc1NC(=O)c1ccccc1F,26.6%
11,Cc1ccc(OCCCC(=O)Nc2ccc3c(c2)OCO3)cc1,11.8%
12,O=C(NNC(=O)c1cc2ccccc2cc1O)Nc1ccccc1F,4.12%
13,O=C1CN(C(=O)COC(=O)c2ccccc2O)c2ccccc2N1,10.8%
14,CCN(CC)C(=O)CCCSc1nnc(Nc2ccccc2F)s1,3.49%
15,CCOC(=O)c1cc(CC)sc1NC(=O)c1cc(OCC)c(OCC)c(OCC)c1,11.7%
16,COc1ccc(S(=O)(=O)NCC2CCC(C(=O)NCCC(C)C)CC2)cc1 (stereo not drawn),6.95%
17,COc1ccc(-n2c(SC3CCOC3=O)nc3ccccc3c2=O)cc1Cl (stereo not drawn),7.9%
18,Cc1cc(C)nc(SCc2nnc(SCC(N)=O)n2Cc2ccco2)n1,-3.7%
19,Cc1ccc(S(=O)(=O)NN2C(=O)/C(=C/c3ccc(F)cc3)SC2=S)cc1,10.5%
20,O=C(CN1CCN(Cc2ccccc2)CC1)N/N=C/c1ccco1,6.75%
21,O=C(COC(=O)CN=C1NS(=O)(=O)c2ccccc21)Nc1ccccc1OC(F)F,4.87%
22,COc1c(C)c2c(c(O)c1C/C=C(\C)CCC(=O)O)C(=O)OC2,13.6%

row,Compound,"hERG current change (%, negative = inhibition) at 1uM"
1,COc1ccc(-c2cc(C(=O)NCCc3ccccc3)no2)cc1OC,8.51%
2,Cc1ccc(C2=NOC(C)(c3nnc(Cc4ccccc4)o3)C2)cc1 (stereo not drawn),6.43%
3,O=[N+]([O-])c1ccc(-n2cc(-c3ccccc3)nn2)cc1,0.495%
4,CC(C)N1C(=O)C2C(C(=O)NC3CCCCC3)C3C=CC2(O3)C1C(=O)NC1CCCCC1 (stereo not drawn),6.69%
5,CC(C)c1cc(CN2CCN(Cc3ccc(F)c(F)c3)C(CCO)C2)[nH]n1 (stereo not drawn),-3.17%
6,CCCCCCC(=O)N=Nc1c(O)[nH]c2ccc([N+](=O)[O-])cc12,8.81%
7,OC(COC(c1ccccc1)c1ccccc1)CN1CCCCC1 (stereo not drawn),-18.5%
8,O=C(NN1CCOCC1)c1ccc(Cl)cc1Cl,5.91%
9,COc1cccc(C2=NO[C@@H]3C(=O)N(Cc4ccccc4)C(=O)[C@H]23)c1OC,-1.01%
10,Cc1c(-c2ccc(Br)cc2)nc2ccccn12,2.27%
11,COc1ccc(-c2cn3cc(C(F)(F)F)cc(Cl)c3n2)cc1,10.9%
12,COc1ccc(C(=O)N/C(=C/c2cccc3ccccc23)C(=O)NCCc2c[nH]c3ccccc23)cc1OC,9%
13,COc1ccc(O)c(/C=N/NC(=O)c2cc(=O)[nH]c3ccccc23)c1,-5.85%
14,Cc1ccc(S(=O)(=O)NCCC(=O)N2CCN(S(=O)(=O)c3cccc(F)c3)CC2)cc1C,7.24%
15,COCC(=O)N(Cc1cc2ccc(C)c(C)c2n2nnnc12)C1CCCC1,8.1%
16,CCn1cnc2c1c(=O)n(Cc1cccc(Br)c1)c(=O)n2Cc1ccccc1,17.4%
17,COc1ccccc1-c1cc(C(F)(F)F)nc(S(=O)(=O)CCCC(=O)N2CCOCC2)n1,8.58%
18,CC(=O)Nc1ccc(OCC(O)CN2CCN(c3ccccc3Cl)CC2)cc1 (stereo not drawn),-9.46%
19,Cc1ccc(CSC2=Nc3ccccc3C3=NC(CC(=O)NCc4ccco4)C(=O)N23)cc1 (stereo not drawn),-11.1%
20,COc1ccc(-c2cn(CCC(=O)NCc3ccc(C)cc3)c(CCN)n2)cc1,9.66%
21,CC1CCN(C(=O)C2CCN(C(=O)c3cc4sccc4n3Cc3ccc(F)cc3)CC2)CC1,1.95%
22,Cc1cc(NC(=O)CSc2nnc3ccc(-c4ccc(F)cc4)nn23)no1,20.1%

row,Compound,"hERG current change (%, negative = inhibition) at 1uM"
1,CCCS(=O)(=O)N1CCCC(C(=O)N2CCN(c3ccccc3)CC2)C1 (stereo not drawn),0.664%
2,CC1CN(C(=O)CCNC(=O)c2ccc(Br)cc2)CC(C)O1 (stereo not drawn),5.99%
3,O=[N+]([O-])c1ccc2nc(-c3ccccc3)n(OCc3ccc(Cl)cc3)c2c1,6%
4,CC1(c2ccccc2)NC(=O)N(NC(=O)CSc2n[nH]c(N)n2)C1=O (stereo not drawn),17.5%
5,CCCNC(=S)NC1CCCC1,-2.81%
6,O=C(NCc1ccccc1)C(c1ccc(F)cc1)N(C(=O)c1csnn1)c1ccccc1 (stereo not drawn),12.6%
7,CCc1cccc(C)c1NC(=S)N(CCOC)C(C)c1ccco1 (stereo not drawn),1.59%
8,CCCCN(Cc1ccco1)S(=O)(=O)c1csc(C(N)=O)c1,8.2%
9,COc1ccc(C(CC(=O)O)NC(C)=O)cc1OC (stereo not drawn),14.2%
10,COc1cc(/C=C2/S/C(=N/S(=O)(=O)Cc3ccccc3)NC2=O)c([N+](=O)[O-])cc1OC,10.2%
11,O=C(NC1CCS(=O)(=O)C1)/C(=C\c1ccccc1)NC(=O)c1ccccc1 (stereo not drawn),-1.24%
12,COc1ccc(CC(=O)Nc2ccc(S(=O)(=O)N(C)C3CCN(C)CC3)cc2)cc1,8.16%
13,Clc1cc2c(nn1)Nc1ccccc1S2,2.75%
14,COc1ccc(Nc2nc3cc(C)ccc3cc2C#N)c(OC)c1,5.11%
15,CC1=CC(C)(C)N(C(=O)CN2C(=O)c3ccccc3C2=O)c2ccc(C)cc21,2.65%
16,Nc1nc2n(n1)C(c1ccco1)CC(c1ccc(Cl)c(Cl)c1)N2 (stereo not drawn),-2.99%
17,COC(=O)c1ccc2c(=O)n(Cc3ccc(C(=O)NCCCN4CCOCC4)cc3)c(=S)[nH]c2c1,14.5%
18,Cc1cccc(OCC(=O)N2CCN(Cc3ccc([N+](=O)[O-])cc3)CC2)c1.O=C(O)C(=O)O,-60.5%
19,Cn1cccc1C(=O)NC(=O)COC(=O)c1cc([N+](=O)[O-])ccc1Cl,2.77%
20,CCOCCCNc1nc(C)nc2c1nnn2Cc1c(F)cccc1Cl,7.54%
21,COc1ccc(C(=O)Nc2ccccc2-c2nnn(CC(=O)Nc3ccc4c(c3)OCCO4)n2)cc1,0.96%
